Reference: US20100184677A1, “USE OF THE HUMAN PANCREATIC POLYPEPTIDE AS A THERAPEUTIC AGENT” (priority 2007, published 2010)

Test system: CEM-SS cells
Assay: Cytotoxicity (MTS cell viability) in CEM-SS cells
Details: peptide 10 micrograms per ml

Cc1cn([C@H]2C[C@H](N=[N+]=[N-])[C@@H](CO)O2)c(=O)[nH]c1=O [AZT]
% Cell viability: 97%
